{
  "source": "paper PMC12136788",
  "binders": {"B1": {"name": "chr12:16048344:16048345:+_ENSG00000023734_ENST00000419869|hu_hu|hu_hu_hu_mus_True|68_68 (ssRNA)", "RNA": "GGGAGUUCUACAGUCCGACGAUCAGAUCGUCCAUAAGUAAUAACCAAAAUCUCUCCUUCAGGAAUAUAUUCCAUACUGCUAACAGACAUAUUAAAAUUCAGAGAUUUCACUUCUGUCAUUGUGGCAUGAUCCCAGAGCCGAACCAACAGAGGAUUGAGCAUCA"}, "B2": {"name": "8778146_8778266_78_3pUTR_ENSMUSG00000020592_ENSMUST00000020911|mouse|control|control (ssRNA)", "RNA": "GGGAGUUCUACAGUCCGACGAUCACUGCCAGGUCCCUUCCUCUGCGUUAGGCUCUGUCUCCUCUGGCCCGCACCUCUCCCGCGGAGCUCCGCCUUAUAAUAAACCCAAAGGCUCUGCAGUUGCAAAACUAGCCGCCCACCCCCCAACAGAGGAUUGAGCAUCA"}, "B3": {"name": "97395070_97395776_2053_CDS_ENSMUSG00000038453_ENSMUST00000107596|mouse|control|control (ssRNA)", "RNA": "GGGAGUUCUACAGUCCGACGAUCGGUCUCCGGCUCUGAGCCUCGCAGUAGGGCACUCUGUACUAGGCCAGUGAGGCUGGCAAUCUGCUUCUCCAUAGCCUCCAUGCGUUCCCUGGUCUCUGUGUCUUUGGCUGGCACCGGCGGCAACAGAGGAUUGAGCAUCA"}, "B4": {"name": "chr20:33096620:33096621:+_ENSG00000078747_ENST00000374864|hu_mus|FALSE|FALSE (ssRNA)", "RNA": "GGGAGUUCUACAGUCCGACGAUCCAACUUGAAUAGUUUAGCAAAAAUGAAAUGUAACUAAGGUGUUGGAUUACUUCAACACCAUAAAGCUUCAAUUUAUGUGUAGGAUUUAAAAAAAUCAAGAAUGAUCUUAGAUGAAUUCAUCAACAGAGGAUUGAGCAUCA"}, "B5": {"name": "chr14:76907486:76907487:+_ENSMUSG00000022010_ENSMUST00000022587|mus_hu|motif|central (ssRNA)", "RNA": "GGGAGUUCUACAGUCCGACGAUCAGUGACACCUUACAAUUGUGUAGAGAACAUGCACAGAAACAUAUGCAUAUAACGGCGGUACAGGUGAUAUGCAGAAACCCCUACUGGGAAAUCCAUUUCAUUAGUUAGAACUGAGCAUUUCAACAGAGGAUUGAGCAUCA"}, "B6": {"name": "chr5:125368827:125368828:+_ENSMUSG00000079215_ENSMUST00000111417|mus_mus|motif|central (ssRNA)", "RNA": "GGGAGUUCUACAGUCCGACGAUCUAGCUUCAAAAGUGUUAGUUGUAUUCCCCAGCAACCGCAUGAUAAAAUAAUUCAACGGUGUAGAAAUAUAGAACUCUAGGACUAGCUGGAAACUGGGCAAUCAUUUAGUCCAGUGUCCUCCAACAGAGGAUUGAGCAUCA"}},
  "note": "Some of the results follow.",
  "data": [
    {"molecular_target": "T1, UNK ZnF1-3 (human, UniProt Q9C0B0 31-174)", "T1 sequence": "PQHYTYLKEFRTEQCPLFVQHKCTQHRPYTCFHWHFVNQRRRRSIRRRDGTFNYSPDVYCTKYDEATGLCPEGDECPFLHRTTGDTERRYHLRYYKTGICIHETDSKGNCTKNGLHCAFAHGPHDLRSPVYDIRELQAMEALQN", "experiment": "nsRBNS (natural sequence RNA bind-n-seq); RBNS binding buffer (assumed for nsRBNS): 25 mM Tris pH 7.5, 150 mM KCl, 3 mM MgCl2, 0.01% Triton X-100, 500 ug/ml BSA, 20 U/ml SUPERase-In, 4 C; UNK is unkempt and MSI1 is Musashi-1; names of the RNAs are library labels; protein concentration not given here; high values mean tight binding", "units": {"binding signal": "enrichment R"}, "values": [
      {"binder": "B1", "binding signal": 1.25},
      {"binder": "B2", "binding signal": 1.59},
      {"binder": "B3", "binding signal": 0.533},
      {"binder": "B4", "binding signal": 0.59},
      {"binder": "B5", "binding signal": 1.69},
      {"binder": "B6", "binding signal": 1.34}
    ]}
  ]
}
